Kd data for one molecule are collected here from paper PMC12095592 (Communications Biology, 2025).

Assay [1] deals with GDID (GBD-DID construct of human DIAPH1, residues 83-380) (human, UniProt O60610 83-380). As to the kind of experiment: ELISA.
Another assay concerns the target full length DIAPH1 (human, UniProt O60610). As to the kind of experiment: ELISA.

As a reminder, the Kd is the concentration at which binding is half-saturated.

Sequence of full length DIAPH1 (O60610 whole entry): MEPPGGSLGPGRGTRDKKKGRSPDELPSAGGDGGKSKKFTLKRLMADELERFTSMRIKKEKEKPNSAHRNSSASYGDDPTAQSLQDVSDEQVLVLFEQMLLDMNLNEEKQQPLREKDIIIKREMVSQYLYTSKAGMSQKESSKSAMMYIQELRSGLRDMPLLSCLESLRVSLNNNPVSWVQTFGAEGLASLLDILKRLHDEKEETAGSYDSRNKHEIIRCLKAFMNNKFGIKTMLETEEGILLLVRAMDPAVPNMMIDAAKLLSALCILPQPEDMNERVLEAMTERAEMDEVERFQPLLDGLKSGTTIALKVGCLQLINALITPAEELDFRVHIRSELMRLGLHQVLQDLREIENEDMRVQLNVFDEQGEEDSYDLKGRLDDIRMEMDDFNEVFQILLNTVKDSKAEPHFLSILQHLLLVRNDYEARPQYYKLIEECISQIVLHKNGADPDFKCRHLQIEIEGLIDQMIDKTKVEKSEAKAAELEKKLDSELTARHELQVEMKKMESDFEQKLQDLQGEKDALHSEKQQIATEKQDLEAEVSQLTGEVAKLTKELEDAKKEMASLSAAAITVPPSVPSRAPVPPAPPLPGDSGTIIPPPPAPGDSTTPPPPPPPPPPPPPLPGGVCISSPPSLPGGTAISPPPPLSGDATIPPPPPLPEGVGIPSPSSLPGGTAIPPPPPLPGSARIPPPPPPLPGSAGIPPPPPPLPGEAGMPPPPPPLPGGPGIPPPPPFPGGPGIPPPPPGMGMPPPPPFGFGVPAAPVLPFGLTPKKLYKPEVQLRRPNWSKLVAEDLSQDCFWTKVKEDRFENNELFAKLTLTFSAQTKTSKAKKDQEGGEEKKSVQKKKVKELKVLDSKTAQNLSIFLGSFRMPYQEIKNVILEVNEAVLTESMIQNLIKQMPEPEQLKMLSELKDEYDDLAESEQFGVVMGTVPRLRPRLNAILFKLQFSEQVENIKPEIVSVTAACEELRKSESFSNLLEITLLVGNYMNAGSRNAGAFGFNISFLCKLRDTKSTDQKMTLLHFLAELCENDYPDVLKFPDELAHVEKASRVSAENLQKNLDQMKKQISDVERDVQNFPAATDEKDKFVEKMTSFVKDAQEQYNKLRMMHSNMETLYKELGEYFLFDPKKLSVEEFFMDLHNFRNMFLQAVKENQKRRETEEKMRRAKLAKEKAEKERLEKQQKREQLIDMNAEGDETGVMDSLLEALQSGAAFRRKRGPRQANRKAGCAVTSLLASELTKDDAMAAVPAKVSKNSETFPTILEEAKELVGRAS

B1: RhoA^Q63L (natural protein)
chain: not shown
Regarding B1, the values for the Kd (in assay [1]; with full length DIAPH1) were 8.9 ± 2.4 nM and 450 ± 40 nM, respectively.
